Measured values as given in PubChem BioAssay AID540317 (National Center for Advancing Translational Sciences (NCATS), 2011).
Among all 390,000 compounds or so, about 2,200 (0.56%) were called active. Inconclusive means that the source gave no clear call. Such entries were picked first, then a sample of the others. The call rests on the fitted dose curve; in most records, active means well fitted inhibition curve with a large enough effect; inconclusive means small, poorly fitted or top-dose-only effect; inactive means no such curve, though single readings can be large or run the other way. Where the call is inconclusive, the potency comes from a doubtful curve fit.

target: Chromobox protein homolog 1 (Homo sapiens) (UniProt P83916); experiment: HTS for Inhibitors of HP1-beta Chromodomain Interactions with Methylated Histone Tails; settings: AlphaScreen HP1-beta / biotin-H3K9me3 peptide binding; series mostly up to 114 µM; further: nearly all actives have a fitted effect of over 70% in size
Sequence of UniProt P83916 (P83916 whole entry, looked up): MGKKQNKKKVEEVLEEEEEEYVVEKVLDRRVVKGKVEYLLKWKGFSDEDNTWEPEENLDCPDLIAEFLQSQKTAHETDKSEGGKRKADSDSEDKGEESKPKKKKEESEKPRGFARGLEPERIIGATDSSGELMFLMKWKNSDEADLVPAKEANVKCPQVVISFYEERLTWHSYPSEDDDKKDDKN
Method in brief: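 AlphaScreen: HP1-beta (50 nM) preformed 30 min with biotin-H3(1-18)K9me3 peptide (50 nM) in PBS pH 7.4, 0.01% Tween-20. Compound added for 30 min at RT, then streptavidin donor/nickel chelate acceptor beads (10 ug/mL) for 30 min.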
Potency means the concentration at half of the fitted maximal effect; tags describe the fitted curve by direction and shape.

| Structure (SMILES) | Potency |
| --- | --- |
| CO/N=C/c1ccc(Sc2ccccc2)c([N+](=O)[O-])c1 | inconclusive: 31.6 µM [inhibitor, partial curve] |
| Cc1ccc(Sc2ncccc2[N+](=O)[O-])cc1 | inconclusive: 56.2 µM [inhibitor, partial curve, poor fit] |
| COc1ccc(NCc2ccccc2[N+](=O)[O-])cc1OC | inconclusive: 20 µM [inhibitor, partial curve, poor fit] |
| CCOc1cc(C(Nc2cc(C)ccn2)c2ccc3cccnc3c2O)ccc1OC (stereo not drawn) | active: 14.1 µM |
| c1ccc(CCSc2nccn2-c2ccccc2)cc1 | inconclusive: 3.98 µM [inhibitor, full curve, poor fit] |
| O=S(=O)(Nc1ccc(Cl)cc1)c1ccc(N2CCOCC2)c(NC(=S)NCCN2CCOCC2)c1 | inconclusive: 3.55 µM [inhibitor, full curve] |
| CC1CCN(CCOc2cccc(Br)c2)CC1 | inconclusive: 56.2 µM [inhibitor, partial curve, poor fit] |
| Cc1cccc(NC(=O)CCNC(=O)c2ccccc2)c1 | inactive |
| O=C1C2C3C=CC(C4CC34)C2C(=O)N1/N=C/c1ccc(-c2ccc(Cl)cc2[N+](=O)[O-])o1 (stereo not drawn) | inconclusive: 31.6 µM [inhibitor, partial curve, poor fit] |
| COc1ccc(OCC(O)CN2CCOCC2)cc1 (stereo not drawn) | inactive |
| Cn1c(=O)c2[nH]c(CN3CCCCC3)nc2n(C)c1=O | inconclusive: 79.4 µM [inhibitor, partial curve, poor fit] |
| COc1cccc(C(=O)Nc2ccc(N(C)C)cc2)c1OC | inconclusive: 50.1 µM [inhibitor, partial curve, poor fit] |
| Clc1ccccc1-c1nnc2sc(CCc3ccccc3)nn12 | inconclusive: 50.1 µM [inhibitor, partial curve, poor fit] |
| O=C(c1ccccc1)c1ccc(OCCCN2CCCC2)cc1 | inconclusive: 63.1 µM [inhibitor, single point] |
| NC(=O)c1ccc(-n2c(CCC(=O)O)ccc2-c2cccs2)cc1 | inconclusive: 70.8 µM [inhibitor, partial curve, poor fit] |
| CC1=NOC(=O)/C1=C\c1ccc(-c2ccc(Cl)c(C(=O)O)c2)o1 | inconclusive: 79.4 µM [inhibitor, single point] |
| CCN(CC1CCCN(CCc2cccc(F)c2)C1)C(=O)c1ccc(CSC)o1 (stereo not drawn) | inconclusive: 70.8 µM [inhibitor, partial curve, poor fit] |
| CC1CCN(c2nc3ccc(C(=O)NCCCN4CCCCC4)cc3s2)CC1 | inactive |
